# Measured values: ChEMBL document CHEMBL1157539, “Thousands of chemical starting points for antimalarial lead identification” (Nature, 2010)
# Whole data set: some 13,000 compounds, median “IFI” near 4, cut for the highest 2% near 17. This is one part of the list.
# Assay: GSK_TCMDC: Inhibition Frequency Index (IFI). The number of non-kinase HTS assays where a compound showed > 50 % inhibition, expressed as a percentage of the number of such assays in which the compound was tested (-0 is zero)
# Type: functional
row,Structure (SMILES),IFI
1,O=C(Nc1cccc(CN2CCCN(Cc3ccc(O)cc3)CC2)c1)c1ccc(Br)cc1,1.52%
2,CC(C)COc1ccc(Cl)cc1Cc1ccc(-c2nc3ccc(Br)cc3[nH]2)o1,19.8%
3,c1ccc(Oc2ccc(Nc3ccnc4cc(-c5cccc(CN6CCOCC6)c5)ccc34)cc2)cc1,0.75%
4,COc1cc(NC(=O)N2CCOC(CCN3CCC(c4ccccc4)CC3)(c3ccc(Cl)c(Cl)c3)C2)cc(OC)c1OC (centres undefined),8.16%
5,COC(=O)c1ccccc1COc1ccc(CC2(NC(=O)[C@H](Nc3ccc(C#N)c4ccccc34)C(C)(C)C)CCCC2)cc1,1.9%
6,O=C(Cc1cccc(Cl)c1)Nc1ccc(N2CCC(NCc3ccc4ncccc4c3)CC2)cc1,-0%
7,Cn1cnc(-c2ccc3c(c2)CCN(CCC2CCC(NC(=O)/C=C/c4ccc(F)cc4)CC2)CC3)c1 (centres undefined),4.29%
8,COc1cccc(-c2ccc3c(-c4ccc(F)cc4)cnc(N)c3c2)c1,6.2%
9,N=C(N)c1ccc(Nc2nc(Nc3ccc(-c4ccccc4)cc3)ncc2[N+](=O)[O-])cc1,8.65%
10,O=C(c1ccc(-c2ccc(-c3nc4cc(C(F)(F)F)ccc4[nH]3)s2)cc1)N1CCCCC1CN1CCC(O)C1 (centres undefined),6.14%
11,Cc1ccc(Nc2c3ccccc3nc3ccc(C)cc23)cc1,7.38%
12,CN1CCC(Oc2ccc(CN3CC[C@H](NC(=O)c4cc(F)cc(F)c4)C3)c3ccccc23)C1 (some centres undefined),6.29%
13,NC(=O)c1cccc(CNCc2ccc(-c3cccc(-c4nc5ccccc5[nH]4)c3)cc2)c1,3.88%
14,CCc1ccc(CN2CCC(CNC(=O)c3cc(-c4cccc(C(F)(F)F)c4)cs3)C2)cc1 (centres undefined),14%
15,COc1ccc(CCNCCCCCCNCCc2ccc(Cl)c(Cl)c2)cc1OC,2.88%
16,CCCC(=O)Nc1ccc(OCCCN(Cc2ccccc2F)c2ccc(C#N)c(C(F)(F)F)c2)cc1,1.45%
17,COc1ccc2ncc(F)c(CCN3CC[C@@H](CNCc4nc5c(cc4C)SCC(=O)N5)C3)c2n1,5.83%
18,Cc1ccc(-c2ccc(Cl)cc2Oc2cnc(N)nc2N)o1,5.26%
19,Cc1ccc(Nc2ccnc(Nc3ccc(F)c(Cl)c3)n2)cc1O,6.25%
20,O=C(Nc1ccc(OC2CCN(Cc3ccccc3)CC2)c(Cl)c1)c1ccc(F)cc1,1.64%
21,Cc1cc(C)c(NC(=O)N2CCCN(CCCCCNC(=O)/C=C/c3ccc(Cl)c(Cl)c3)CC2)c(C)c1,2.01%
22,Cc1cccc2nc(-c3cccc(-c4ccc(NC(=O)C(C)CN(C)C)cc4)c3)[nH]c12 (centres undefined),5.45%
23,CCCCCCCc1c2c(C)c(C(=O)OCC)nc-2cc2n1CC(C)=C2C,4.69%

row,Structure (SMILES),IFI
1,CCN(CC)CCNc1cc(C)nc(NC(=N)Nc2ccc(Cl)cc2)n1,3.79%
2,c1ccc(CNCc2cccc(-c3ccc(-c4nc5ccccc5[nH]4)s3)c2)cc1,3.92%
3,COc1cccc(CNCC(C)(C)c2nc(-c3ccc(Cl)c(O)c3)c(-c3ccncc3)[nH]2)c1,5.8%
4,Cc1ccc(O)cc1Nc1ccnc2cc(-c3ccccc3)ccc12,10%
5,CCOc1c(N2CCN(CCCCNC(=O)c3ccc(NC(=O)c4ccc(Cl)cc4)cc3)CC2)ccc2ccccc12,5.31%
6,CCC[C@@H](C(=O)NCCc1cccc(OC)c1)N1C(=O)c2c(ccc(OC)c2OC)C1C(=O)Nc1c(C)cccc1C (some centres undefined),-0%
7,Cc1ccnc(NC(c2cccc(OCc3ccccc3)c2)c2ccc3cccnc3c2O)c1 (centres undefined),4.83%
8,Cc1cc(OCCCN2CCCCC2C)ccc1NC(=O)COc1ccc(Cl)cc1C(=O)c1cc(Cl)cc(C#N)c1 (centres undefined),7.26%
9,O=C(Nc1ccc2c(c1)CCC2)c1cccc(N2CCN(c3ccncc3)CC2)c1,7.14%
10,COc1ccc(CN2CCC(CNC(C)c3cccc4ccccc34)CC2)cc1 (centres undefined),12.9%
11,C=CCNc1cc(-c2ccccn2)nc(-c2ccccn2)n1,12.9%
12,Cc1cccc2nc(-c3cccc(-c4cccc(C(=O)NCCc5cn(C)cn5)c4)c3)[nH]c12,3.74%
13,COc1ccccc1CNc1ncc(-c2ccsc2)c(-c2nccs2)n1,3.41%
14,COc1ccccc1C1CCN(C2CCC(NC(=O)/C=C/c3cc(F)cc(C(F)(F)F)c3)CC2)CC1 (centres undefined),11.5%
15,NCCCNc1nccc(N2CCc3ncnc(Nc4ccc(OCc5cccc(F)c5)c(Cl)c4)c3C2)n1,12.5%
16,O=C(Cc1ccc[n+]([O-])c1)Nc1cccc(-c2cccc(-c3nc4cc(C(F)(F)F)ccc4[nH]3)c2)c1,1.82%
17,COc1ccc2nc(N3CCN(C(=O)OC(C)(C)C)CC3)nc(NCCCc3ccccc3)c2c1,5.97%
18,CN1CCCc2ccc(NC(=O)Nc3ccc(-c4ccccc4)cc3)cc2C1,7.02%
19,Cn1cnc(CCNC(=O)c2cccc(-c3ccc(-c4nc5cc(F)ccc5[nH]4)cc3)c2)c1,3.81%
20,CC(C)(C)c1cc(C(=O)N2CCC(c3ccccn3)CC2)n(Cc2ccccc2)n1,-0%
21,O=C(Nc1cccc(C(F)(F)F)c1)c1cccc(S(=O)(=O)NCC2CCCN2CC2CCCCC2)c1 (centres undefined),-0%
22,Fc1ccc2cc(C=Cc3ccncc3)[nH]c2c1,2.56%
23,Fc1cccc(CNc2ncc(-c3ccsc3)c(-c3nccs3)n2)c1,4.55%

row,Structure (SMILES),IFI
1,CCOc1cc(Cc2cnc(N)nc2N)cc(OCC)c1O,0.75%
2,COc1ccc2nccc(NC(=O)N3CCC(NCc4cc5ccccc5[nH]4)CC3)c2n1,2.99%
3,Fc1cccc(COc2ccc(Nc3ncnc4ccc(-c5nnc(C(F)(F)F)o5)cc34)cc2Cl)c1,1.46%
4,O=C(/C=C/c1ccc(Cl)c(Cl)c1)N1CCC(CN2CCC(Cc3nc4ccccc4[nH]3)CC2)CC1,7.75%
5,COc1ccc2nccc(N3CCC(CCNCc4ccc5c(n4)NC(=O)CO5)CC3)c2n1,3.62%
6,CCN(CC)S(=O)(=O)c1ccc(C(=O)Oc2ccccc2N(Cc2ccc(OC)cc2)C2=NS(=O)(=O)c3ccccc32)cc1,0.68%
7,O=C(NCC(CCN1CCC(c2c[nH]c3ccccc23)CC1)c1ccccc1)Nc1ccc(Cl)c(Cl)c1 (centres undefined),15%
8,COc1ccccc1C1CCN(C2CCC(NC(=O)/C=C/c3ccc(C(F)(F)F)cc3F)CC2)CC1 (centres undefined),8.2%
9,O=C(Cn1c(=O)oc2ccccc21)N1CCC(n2c(=O)n(CCCN3CCOCC3)c3ccccc32)CC1,1.8%
10,COc1ccc(-c2cnc3ccc(NCc4ccc(S(N)(=O)=O)cc4)nn23)cc1,2.29%
11,COc1ccc(Nc2nccc(N3CCC(NC(=O)c4cccc(C#N)c4)C3)n2)cc1 (centres undefined),3.08%
12,CCCOc1cc(Cc2cnc(N)nc2N)cc(OC)c1OC,0%
13,COC(=O)c1cccc(CNCc2ccc(-c3ccc(-c4nc5cc(C(F)(F)F)ccc5[nH]4)s3)cc2)c1,11.5%
14,O=c1cc(NCCCNCc2sc(Br)nc2Br)[nH]c2ccccc12,4.48%
15,CC12CC3CC(C)(C1)CC(Nc1nc(N4CCOCC4)nc4ccccc14)(C3)C2,0.88%
16,COc1ccc2nc(C)cc(N/N=C/c3cccc([N+](=O)[O-])c3)c2c1,1.42%
17,COc1ccc2c(CCNc3nc(SC)ncc3C(=O)NCCc3ccc(F)cc3)c[nH]c2c1,5.61%
18,CN(C)c1cccc(-c2cnc3ccc(NCc4cccc(Cl)c4)nn23)c1,5.51%
19,COc1ccc(NC(=O)N2CCCN(CCCCCNC(=O)/C=C/c3ccc(C(F)(F)F)cc3)CC2)cc1Cl,7.92%
20,Cc1cc(C(=O)NCc2ccc(-c3c(C)noc3C)cc2)n(-c2ccccc2)n1,2.86%
21,COc1cc2c(cc1S(=O)(=O)c1ccc(OCc3ccc(Cl)cc3)cc1)CCN(Cc1ccc(NC(C)=O)s1)CC2,7.14%
22,O=C(/C=C/c1ccc2ccccc2c1)NCCCCCN1CCC(c2c[nH]c3ccccc23)CC1,5%
23,Cc1ccc(-c2ccn(Cc3cccc(OCc4ccccc4)c3)n2)cn1.Cc1ccc(-c2ccnn2Cc2cccc(OCc3ccccc3)c2)cn1,0.82%

row,Structure (SMILES),IFI
1,COc1cccc(Nc2nc(C)cc(NCc3ccc(-n4ccnc4)cc3)n2)c1,4.55%
2,COc1ccc(Nc2cc(C)c3cc(NC(=O)c4ccncc4)ccc3n2)cc1,4.11%
3,CCCCNCc1ccc(-c2nc(CN(C(=O)Nc3cc([N+](=O)[O-])ccc3F)C3Cc4ccccc4C3)cs2)cc1,7.59%
4,O=C(Nc1nc2ccc(Cl)cc2s1)c1csnn1,0%
5,CNCCNC(=O)C1Cc2c([nH]c3c(C)cccc23)C(c2ccc(Cl)c(Cl)c2)N1 (centres undefined),5.15%
6,OC1(C(F)(F)F)CC(c2ccccc2)=NN1c1nncc(-c2ccccc2)n1 (centres undefined),0%
7,Cc1noc(-c2ccc(N3CCC(C(=O)N4CCN(C(C)C)CC4)CC3)cc2)n1,-0%
8,Oc1ccc(CCNc2nc(NCc3ccccc3-c3cccc(Cl)c3)nc(N3CCNCC3)n2)cc1,15.4%
9,Cc1cc(N[C@@H](Cc2ccccc2)C(=O)NCc2cccc(F)c2)nc(Nc2ccccc2)n1,4.76%
10,Cc1cc(N2CCOCC2)nc(Nc2ccc(NC(=O)c3cccc4ccccc34)cc2)n1,11.3%
11,Cc1cc(C)nc(-n2[nH]c(C)c(Cc3ccc(C(C)(C)C)cc3)c2=O)n1,4.12%
12,CC(=O)Nc1ccc(OCCCCN(Cc2ccccc2C(F)(F)F)c2ccc(C#N)c(C(F)(F)F)c2)cc1,-0%
13,CC(=NO)C1=C(O)C(c2ccccc2)N(c2ccccc2)C1=O (centres undefined),-0%
14,Cc1cccc(CN2CCCN(Cc3ccc(C(=O)Nc4ccc(Cl)cc4)cc3)CC2)c1,11%
15,Cc1cccc2nc(-c3cccc(-c4cccc(NC(=O)Nc5ccc(Cl)c(Cl)c5)c4)c3)[nH]c12,3%
16,CC(C)CNCc1cccc(-c2cccc(CN(CCCN3CCN(C)CC3)C(=O)CCC3CCCC3)c2)c1,7.97%
17,CC(Cc1ccc(CN(CC(N)=O)Cc2ccc(CC(C)NCCc3cccc(Cl)c3)cc2)cc1)NCCc1cccc(Cl)c1 (centres undefined),3.65%
18,O=C(Nc1ccc(N2CCCCC2)c(Cl)c1)c1ccc(Br)o1,2.78%
19,Cc1ccccc1C1CCN(c2ncc(C(=O)NC3CC3)cc2Cl)CC1,13.6%
20,COCCN1CCC(CNCC(C)(C)c2nc(-c3ccc(Cl)c(O)c3)c(-c3ccncc3)[nH]2)CC1,-0%
